The record followed here is patent US20250243520A1, “PRODUCTION METHOD FOR L-CYCLIC AMINO ACIDS” (UBE CORPORATION, priority 2019, published 2025).

Substrate in this data set: NC(=O)C1=CN([C@@H]2O[C@H](COP(=O)(O)OP(=O)(O)OC[C@H]3O[C@@H](n4cnc5c(N)ncnc54)[C@H](OP(=O)(O)O)[C@@H]3O)[C@@H](O)[C@H]2O)C=CC1
The experiment in a line: purified protein, by the assay type. The data set is classed as biochemical, Arabidopsis thaliana.

The mark [1] stands for this setting: other: Hanes-Woolf plot, NADPH 10-500 μM, Tris-HCl pH 7.2.

B1: Arabidopsis thaliana imino acid (imine) reductase AtP2CR, GST-fused, SEQ ID NO: 8 (AtP2CR: SEQ ID NO: 2) (Arabidopsis thaliana) (protein)
chain: [sequence of about 200 residues not given]SDLVPRGSPEFMAALPVFIPAESFPSILSHETLINHFRTNLPKHSSTITSPVRQNYTVSSPSSLLLMPSWSSSSSLPYMGVKLVTYFPHNSSQNLPGIHGSYTLFSSTTGQTLATMDGTVLTLYRTSSVSGLGSKILARDDSQVLIMVGSGALAPHLIKSHLAARPSLRRVIIWNRTPQRAQELAETLSKDPQHKEISFDSHDSLDQIIPLGDIISCATNSTVPLVKGEFLKPGTHLDLAGSFSHEMKECDDNAIQRGSVFVDNDTAMIEAGELAGAFERGVIKREDICGNLVELIKGDKEGRKSSTDITVFKSVGSGTVDLLTAQLVHETYLSRC
notes: pGEX-4T-1), expressed in E. coli, GST-purified
On to B1, for which, under setting [1], the Km (in general, the substrate concentration at which the rate is half of its maximum) amounted to 33.42 µM and the Vmax (in general, the top rate of the reaction or transport when substrate is in excess) is on record as 208.73 nmol/min/mg. Moreover, under “other: Table 5, values determined by ANEMONA, GST-fused protein, pH 7.2”, the Km came out at 34.3 µM.
